Data as given in paper PMC4336329 (PLoS ONE, 2015).
The whole screen tested about 310,000 compounds, of which about 14,000 (4.5%) showed an effect of 50% or more. The effect is printed as a negative number. The list shows a part of the results.
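Also: peak tail current of the secondary pulse compared with the same well before compound.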

What follows are compounds tested against human ether-à-go-go-related gene (hERG) potassium channel (human, UniProt Q12809) (assay: primary screen, population patch clamp on CHO cells stably expressing hERG).
Sequence of human ether-à-go-go-related gene (hERG) potassium channel (Q12809 whole entry, looked up): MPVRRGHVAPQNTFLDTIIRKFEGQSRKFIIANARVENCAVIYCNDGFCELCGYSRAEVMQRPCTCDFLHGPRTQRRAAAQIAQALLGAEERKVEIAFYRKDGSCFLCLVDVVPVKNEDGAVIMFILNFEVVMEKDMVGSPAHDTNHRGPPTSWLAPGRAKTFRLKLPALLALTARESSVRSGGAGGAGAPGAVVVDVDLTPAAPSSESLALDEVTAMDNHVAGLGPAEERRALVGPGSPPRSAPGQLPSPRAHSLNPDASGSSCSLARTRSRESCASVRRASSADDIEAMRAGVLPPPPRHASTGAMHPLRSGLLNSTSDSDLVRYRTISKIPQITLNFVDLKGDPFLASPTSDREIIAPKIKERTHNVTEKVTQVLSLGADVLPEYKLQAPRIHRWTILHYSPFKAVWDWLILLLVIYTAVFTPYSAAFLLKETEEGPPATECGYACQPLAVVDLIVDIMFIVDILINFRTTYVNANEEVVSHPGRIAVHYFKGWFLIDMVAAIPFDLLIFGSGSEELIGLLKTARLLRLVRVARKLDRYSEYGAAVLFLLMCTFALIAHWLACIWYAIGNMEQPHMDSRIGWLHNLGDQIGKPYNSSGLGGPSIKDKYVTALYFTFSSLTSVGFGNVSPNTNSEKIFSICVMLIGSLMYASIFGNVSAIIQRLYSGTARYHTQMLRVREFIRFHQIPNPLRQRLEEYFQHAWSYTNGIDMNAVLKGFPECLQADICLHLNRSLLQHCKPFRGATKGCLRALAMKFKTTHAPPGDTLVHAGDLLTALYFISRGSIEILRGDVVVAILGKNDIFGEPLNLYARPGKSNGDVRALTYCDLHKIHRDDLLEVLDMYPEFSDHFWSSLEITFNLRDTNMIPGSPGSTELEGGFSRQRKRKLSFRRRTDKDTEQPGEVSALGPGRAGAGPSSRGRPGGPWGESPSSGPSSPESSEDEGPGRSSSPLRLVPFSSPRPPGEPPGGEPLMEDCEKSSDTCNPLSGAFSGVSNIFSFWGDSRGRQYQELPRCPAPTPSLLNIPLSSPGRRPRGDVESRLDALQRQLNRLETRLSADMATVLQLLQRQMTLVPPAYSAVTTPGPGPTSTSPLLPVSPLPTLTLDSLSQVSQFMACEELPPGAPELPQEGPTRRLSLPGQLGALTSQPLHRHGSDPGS
In the case of `CCOc1ccc(CCNC(=O)Cc2ccc(NC3=NC4CS(=O)(=O)CC4S3)cc2)cc1OCC` (stereo not shown), the “hERG current change (%, negative = inhibition) at 10uM” value is reported as 29.8%. In the case of `O=C(O)c1ccc(NS(=O)(=O)c2ccc(Cl)c(Cl)c2)cc1O`, the “hERG current change (%, negative = inhibition) at 10uM” value is reported as -1.71%. With `COc1ccc(C(=O)N2CCC(C(=O)Nc3cccc(C)c3)CC2)cc1OC` the “hERG current change (%, negative = inhibition) at 10uM” value was -38.9%. In the case of `CCOC(=O)N1CCN(S(=O)(=O)c2cc(OCC(N)=O)c(C)cc2Cl)CC1`, the “hERG current change (%, negative = inhibition) at 10uM” value is reported as -1.36%. With `O=C(COc1ncnc2c(Cl)cc(Cl)cc12)N1CCCCC1` the “hERG current change (%, negative = inhibition) at 10uM” value was -8.38%. For `Cl.NCCS`, the “hERG current change (%, negative = inhibition) at 10uM” value was 14.9%. With `NC(=O)c1cccnc1Nc1ccccc1F` the “hERG current change (%, negative = inhibition) at 10uM” value was 0.0995%. `Cc1c(C#N)c(O)[nH]c(=O)c1N=Nc1ccc(Br)cc1C(=O)O` was tested, and the “hERG current change (%, negative = inhibition) at 10uM” value was 18.9%. For `CSCCC(NC(=O)c1ccccc1Br)C(=O)NCC(c1ccco1)N1CCCCC1` (stereo not shown), the “hERG current change (%, negative = inhibition) at 10uM” value was -40.5%. In the case of `Nc1c(C(=O)Nc2ccccc2F)sc2nc(Cc3ccccc3)cc(C(F)(F)F)c12`, the “hERG current change (%, negative = inhibition) at 10uM” value is reported as 2.41%. `O=C(Nc1ccc(Cl)c(Cl)c1)N1CCC(N2CCCCC2)CC1` was tested, and the “hERG current change (%, negative = inhibition) at 10uM” value was -63.5%. `O=C(Nc1ccccc1C(=O)Nc1ccccc1)c1ccco1` was tested, and the “hERG current change (%, negative = inhibition) at 10uM” value was 8.99%. `COc1ccc(N2CCN(C(=O)c3ccc(SC)cc3OC)CC2)cc1` was tested, and the “hERG current change (%, negative = inhibition) at 10uM” value was -55.3%. With `CCO[C@H]1OC(C(=O)NCc2ccccc2)=C[C@@H](c2cn(C(C)=O)c3ccccc23)[C@@H]1CCCO` the “hERG current change (%, negative = inhibition) at 10uM” value was -64.3%. In the case of `CC(/C=N/n1c(-c2ccc(C)cc2)n[nH]c1=S)=C\c1ccco1`, the “hERG current change (%, negative = inhibition) at 10uM” value is reported as 12.5%. `COc1cc2c(cc1OC)CN(C(=O)/C=C/c1cccc([N+](=O)[O-])c1)CC2` was tested, and the “hERG current change (%, negative = inhibition) at 10uM” value was -31.2%. With `O=C(NC(Cc1ccccc1)C(=O)O)/C(=C/c1ccco1)NC(=O)c1cccc([N+](=O)[O-])c1` (stereo not shown) the “hERG current change (%, negative = inhibition) at 10uM” value was 24%. For `COc1cc(C2C(C#N)=C(N)OC3=C2C(=O)CCC3)cc(OC)c1OC(=O)N1CCOCC1` (stereo not shown), the “hERG current change (%, negative = inhibition) at 10uM” value was -17.7%. With `CCC(C)Nc1nc(OCC(F)(F)F)nc(OCC(F)(F)F)n1` (stereo not shown) the “hERG current change (%, negative = inhibition) at 10uM” value was 2.17%. For `COc1ccc(Oc2nc3ccccc3nc2C(F)(F)F)cc1`, the “hERG current change (%, negative = inhibition) at 10uM” value was -12%. For `NC(=O)c1cc(Cl)ccc1OCC(=O)N1CCCc2ccccc21`, the “hERG current change (%, negative = inhibition) at 10uM” value was 11.4%. In the case of `Nc1c(-c2cccc(Cl)c2)cnn1-c1cccc(C(F)(F)F)c1`, the “hERG current change (%, negative = inhibition) at 10uM” value is reported as -3.38%. In the case of `Cc1cc(C(=O)N/N=C2\CCCC(C)C2)n[nH]1` (stereo not shown), the “hERG current change (%, negative = inhibition) at 10uM” value is reported as 11%. `CCCSc1ccc(-c2nn(-c3ccccc3)cc2/C=C(/C#N)C(=O)N2CCOCC2)cc1` was tested, and the “hERG current change (%, negative = inhibition) at 10uM” value was 9.39%. For `COC(=O)c1cc(C(=O)c2cccc(Cl)c2Cl)cn1C`, the “hERG current change (%, negative = inhibition) at 10uM” value was -43.4%. In the case of `C/C(=N\NC(=O)COc1ccc(C(C)(C)C)cc1)c1ccc(N2CCOCC2)cc1`, the “hERG current change (%, negative = inhibition) at 10uM” value is reported as 5.99%. `COc1ccc(C(=O)CC2C(=O)N(C)C(=O)N(C)C2=O)cc1` was tested, and the “hERG current change (%, negative = inhibition) at 10uM” value was 3.03%. With `O=[N+]([O-])c1ccc(C[n+]2c(-c3ccccc3)cc(-c3ccccc3)cc2-c2ccccc2)cc1.[O-][Cl+3]([O-])([O-])[O-]` the “hERG current change (%, negative = inhibition) at 10uM” value was -25.8%. In the case of `COc1ccc(Cn2c(C)c(C)c(C#N)c2NC(=O)Nc2ccc(F)cc2)cc1`, the “hERG current change (%, negative = inhibition) at 10uM” value is reported as -3.49%. With `Cn1c(CCc2ccccc2)n[nH]c1=S` the “hERG current change (%, negative = inhibition) at 10uM” value was 12.4%. For `Cc1ccc(-n2cc(-c3ccccc3)c3c(N4CCN(C)CC4)ncnc32)cc1`, the “hERG current change (%, negative = inhibition) at 10uM” value was -9.95%. `S=C1NC(c2ccccc2)=CC(c2ccccc2)N1` (stereo not shown) was tested, and the “hERG current change (%, negative = inhibition) at 10uM” value was 6.64%. With `COc1ccc(C(=O)N2CCN=C2SC)cc1` the “hERG current change (%, negative = inhibition) at 10uM” value was 1.04%. With `CCOc1ccc(NC(=O)N2CCN(c3nc4ccccc4s3)CC2)cc1` the “hERG current change (%, negative = inhibition) at 10uM” value was 1.91%. With `Cc1ccccc1NC(=O)C(=O)NNC(=O)COc1ccc2ccccc2c1` the “hERG current change (%, negative = inhibition) at 10uM” value was 20.1%. In the case of `CCc1nnc(NC(=O)C2CCCN(c3nc4ccccc4s3)C2)s1` (stereo not shown), the “hERG current change (%, negative = inhibition) at 10uM” value is reported as -5.43%. For `C=CCNc1nnc(Sc2ncccc2[N+](=O)[O-])s1`, the “hERG current change (%, negative = inhibition) at 10uM” value was -4.93%. In the case of `CC(=O)N1CCN(c2nc3ccc([N+](=O)[O-])cc3s2)CC1`, the “hERG current change (%, negative = inhibition) at 10uM” value is reported as -46.6%. In the case of `COc1ccc(-n2c(CN3CCN(Cc4ccccc4)CC3)nc3ccc([N+](=O)[O-])cc3c2=O)c(OC)c1`, the “hERG current change (%, negative = inhibition) at 10uM” value is reported as -51.1%. For `O=C(Cc1n[nH]c(=O)c2ccccc12)OCC(=O)c1ccccc1Cl`, the “hERG current change (%, negative = inhibition) at 10uM” value was 11.1%. For `CCOc1ccc(NC(=O)CN(C)C(=O)c2cc(S(=O)(=O)N3CCCCC3)ccc2Cl)cc1OCC`, the “hERG current change (%, negative = inhibition) at 10uM” value was -16.5%. `Cc1ccc(S(=O)(=O)N2CC3CCCN3c3ccc(C(F)(F)F)cc32)cc1` (stereo not shown) was tested, and the “hERG current change (%, negative = inhibition) at 10uM” value was 15.8%. With `O=C(c1ccc(S(=O)(=O)N2CCCCCC2)cc1)N1CCN(c2ccccc2F)CC1` the “hERG current change (%, negative = inhibition) at 10uM” value was -27.2%. `COc1ccc(Cl)cc1C(=O)NCC(c1ccco1)N1CCCC1` (stereo not shown) was tested, and the “hERG current change (%, negative = inhibition) at 10uM” value was -44.5%. With `O=S(=O)(c1ccccc1)c1cnn(-c2ccccc2)c1-c1ccc(F)cc1` the “hERG current change (%, negative = inhibition) at 10uM” value was -0.19%. `CCCCOCCCNC(=O)CCCOc1ccccc1` was tested, and the “hERG current change (%, negative = inhibition) at 10uM” value was 0.373%. With `CCCN(CC(=O)Nc1ccccc1OC)C(=O)c1cccc(S(=O)(=O)Nc2ccc(OC)cc2)c1` the “hERG current change (%, negative = inhibition) at 10uM” value was -11.4%. In the case of `CC(=O)Nc1ccc(C(=O)n2nc(C)cc2C)cc1`, the “hERG current change (%, negative = inhibition) at 10uM” value is reported as 7.12%. With `Cc1ccc2c(c1)C(=O)OC1(O)C3C4C=CC(C4)C3C(=O)N21` (stereo not shown) the “hERG current change (%, negative = inhibition) at 10uM” value was 10.2%. `Cc1ccc(S(=O)(=O)N2CCN(C(=O)CSc3ncc(C(F)(F)F)cc3Cl)CC2)cc1` was tested, and the “hERG current change (%, negative = inhibition) at 10uM” value was 1.99%. For `CC(C)Nc1nc(-c2ccncc2)nc(-c2ccccc2)c1C#N`, the “hERG current change (%, negative = inhibition) at 10uM” value was 20.4%. `COc1cc(CCC(=O)NNC(=O)c2ccc(Cl)cc2)cc(OC)c1OC` was tested, and the “hERG current change (%, negative = inhibition) at 10uM” value was 10.3%. With `COc1ccc(C2C(C(=O)O)CC(=O)N2C2CCCCC2)cc1` (stereo not shown) the “hERG current change (%, negative = inhibition) at 10uM” value was -13.8%. In the case of `CCn1c(SCC(=O)NCc2ccccc2)nc2ccccc2c1=O`, the “hERG current change (%, negative = inhibition) at 10uM” value is reported as -11.6%. For `S=C(NCCc1ccccc1)N/N=C/c1cccc(Cl)c1Cl`, the “hERG current change (%, negative = inhibition) at 10uM” value was 14.5%.
